Results taken from article PMC4336329 (PLoS ONE, 2015).
Hit rate of the full screen: of about 310,000 compounds, about 2,200 (0.71%) showed an effect of 50% or more. Effects have a minus sign here. The list shows a part of the results.

What follows are compounds tested against human ether-à-go-go-related gene (hERG) potassium channel (human, UniProt Q12809) (assay: primary screen, population patch clamp on CHO cells stably expressing hERG).
human ether-à-go-go-related gene (hERG) potassium channel, sequence (Q12809 whole entry, looked up): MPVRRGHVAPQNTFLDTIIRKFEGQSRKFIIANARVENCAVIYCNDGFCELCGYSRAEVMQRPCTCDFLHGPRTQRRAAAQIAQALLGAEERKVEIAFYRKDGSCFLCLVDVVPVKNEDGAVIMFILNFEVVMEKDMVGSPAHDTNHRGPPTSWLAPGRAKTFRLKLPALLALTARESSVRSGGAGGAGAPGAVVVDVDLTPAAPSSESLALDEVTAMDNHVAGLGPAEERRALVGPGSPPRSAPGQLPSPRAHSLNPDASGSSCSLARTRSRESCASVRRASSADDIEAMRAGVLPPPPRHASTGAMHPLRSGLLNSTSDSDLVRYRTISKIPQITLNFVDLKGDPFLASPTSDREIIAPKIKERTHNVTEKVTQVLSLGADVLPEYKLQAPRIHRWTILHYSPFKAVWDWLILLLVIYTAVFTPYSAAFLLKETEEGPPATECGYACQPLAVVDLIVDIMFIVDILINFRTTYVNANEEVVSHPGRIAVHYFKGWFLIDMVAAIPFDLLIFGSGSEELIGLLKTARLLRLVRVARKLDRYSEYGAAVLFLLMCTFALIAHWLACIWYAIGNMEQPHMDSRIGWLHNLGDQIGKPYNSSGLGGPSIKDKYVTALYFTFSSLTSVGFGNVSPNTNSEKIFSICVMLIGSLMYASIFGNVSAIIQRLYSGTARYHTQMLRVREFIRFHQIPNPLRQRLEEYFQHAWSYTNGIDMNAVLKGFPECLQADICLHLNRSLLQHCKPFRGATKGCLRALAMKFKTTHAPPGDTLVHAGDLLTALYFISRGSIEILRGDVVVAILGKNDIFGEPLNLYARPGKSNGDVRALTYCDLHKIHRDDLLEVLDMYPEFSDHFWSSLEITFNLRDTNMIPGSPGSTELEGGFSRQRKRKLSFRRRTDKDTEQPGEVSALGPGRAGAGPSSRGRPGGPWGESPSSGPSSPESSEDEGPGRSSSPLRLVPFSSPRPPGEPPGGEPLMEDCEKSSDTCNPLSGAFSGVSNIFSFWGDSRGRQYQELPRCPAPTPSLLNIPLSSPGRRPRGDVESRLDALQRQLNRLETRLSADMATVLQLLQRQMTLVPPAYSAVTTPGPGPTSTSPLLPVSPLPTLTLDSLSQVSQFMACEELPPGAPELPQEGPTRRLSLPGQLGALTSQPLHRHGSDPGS

SMILES	hERG current change (%, negative = inhibition) at 1uM [%]
COc1cc([N+](=O)[O-])ccc1NC(=S)N1CCN(c2ccccn2)CC1	-5.05
O=C(NCCCN1CCOCC1)c1c(F)c(F)c(F)c(F)c1F	17.6
CC(C)(C)c1ccc(-c2nnc(SCCC#N)n2C2CCCC2)cc1	9.93
CCC/C(=C1/C(=O)CC(C)(C)C(C(=O)OC)C1=O)N1CCCC1 (stereo not shown)	-9.52
CCOC(=O)c1ccccc1NC(=O)c1c(O)c2ccccc2n(CC)c1=O	13.7
O=C(Nc1ccccc1N1CCOCC1)c1cc(Cl)c2c(c1)OCO2	21.6
CC(=O)Nc1ccc(C(=O)CCl)cc1	11.4
CCCCNC(=O)N1CCN(C(=O)c2ccco2)CC1	0.681
CC(C)OP(=O)(OC(C)C)C1(O)C(=O)Nc2ccc(Br)cc21 (stereo not shown)	-0.0893
O=C1c2ccccc2C(=O)N1CCCCN(C(=O)c1cc([N+](=O)[O-])cc([N+](=O)[O-])c1)c1ccc(Cl)cc1	7.16
Cc1ccc(/C(CSc2nccn2-c2ncc(C(F)(F)F)cc2Cl)=N\O)cc1	7.94
COc1cccc(OCC(=O)N2CCC3(CC2)CC(=O)c2ccccc2O3)c1	-5.23
S=C(NCCN1CCOCC1)Nc1ccc(-c2nc3ccccc3[nH]2)cc1	13.4
Cc1ccc(OC(=O)CN2C(=O)c3ccccc3C2=O)cc1C	18.1
CCOc1c2ccc(C(=O)NCCc3cccs3)cc2nn1CC	8.71
COC(=O)c1nn2c(C(F)(F)F)cc(-c3ccc(Br)o3)nc2c1Br	9.88
C=C(C)C(=O)NNc1ccccc1	14.4
Cn1c(COc2ccccc2)nnc1SCCSc1nnc(COc2ccccc2)n1C	-3.39
Cc1ccc(-c2nsc3c(N4CCC(C(N)=O)CC4)ncnc23)cc1	10.6
COc1cc(C(=O)Oc2c(OC)cc(C(=S)N3CCOCC3)cc2OC)cc(OC)c1OC	15
Cc1nc2cc(N3CCCCC3)c(NC(=O)c3ccncc3)cc2c(=O)n1Cc1ccc(Cl)cc1	18.9
O=S(=O)(c1cccc2c(S(=O)(=O)N3CCCC3)cccc12)N1CCCC1	-2.37

SMILES	hERG current change (%, negative = inhibition) at 1uM [%]
O=C(C1CCC1)N1CCN(S(=O)(=O)c2ccc(Br)cc2Cl)CC1	8.55
Cc1cccc(OP(=O)(NCc2ccccc2)Oc2cccc(C)c2)c1	5.39
Cc1ccc(S(=O)(=O)N2CCOC2CNC(=O)C(=O)NCc2ccccc2)cc1 (stereo not shown)	10.1
O=C(NNC(=O)c1ccc(Cl)c(S(=O)(=O)Nc2ccc(Cl)cc2)c1)c1ccc(=O)[nH]c1	14.5
O=C(Nc1ccccc1)c1ccccc1OCC(O)CN1C(=O)c2ccccc2S1(=O)=O (stereo not shown)	6.06
O=c1[nH][nH]c(C(F)(F)F)c1C=Nc1ccccc1	12.5
O=C(NCCN1CCOCC1)c1ccc(NC(=O)C2COc3ccccc3O2)cc1 (stereo not shown)	13.7
O=C(C1CCCN(S(=O)(=O)c2ccc(Cl)cc2)C1)N(Cc1cccs1)C1CC1 (stereo not shown)	8.28
O=C1CCC(C(=O)NCCCn2ccnc2)N1 (stereo not shown)	12.4
COc1cc2c(cc1OC)CN(C(=O)Nc1ccccc1)CC2	14.9
O=C(CS(=O)(=O)c1ccccc1)N1CCc2ccccc21	1.57
O=C(CSc1nnc(-c2cccnc2)o1)NNC(=O)c1ccc(Br)cc1	10.5
O/N=C(\c1ccc(Cl)cc1)c1ncc(C(F)(F)F)cc1Cl	14.2
O=C(OCc1ccccc1)C1CCCN1C(=O)c1cccs1 (stereo not shown)	1.6
COc1ccc(/C=C(\NC(=O)c2ccc([N+](=O)[O-])cc2)C(=O)NCCCN2CCOCC2)cc1	-41
CCCCn1c(SCC(=O)NCc2ccc(OC)c(C(=O)O)c2)nc2cc(S(N)(=O)=O)ccc21	18.3
COc1ccc(NC(=O)c2cc3c(CO)cnc(C)c3oc2=Nc2cc(OC)cc(OC)c2)cc1	22.5
CCc1ccc(NC(=O)C(C)OC(=O)c2cc(=O)[nH]c3ccc(S(=O)(=O)Nc4ccc(F)cc4)cc23)cc1 (stereo not shown)	7.45
CCOC(=O)CSc1nnc(-c2c[nH]c3ccccc23)o1	9.76
O=[N+]([O-])c1ccc(N2CCN(c3cccc(Cl)c3)CC2)cn1	-59.8
CCc1ccc(CNCCc2ccccc2F)cc1	6.1
Cc1cc(OC(=O)c2ccccc2C(F)(F)F)c([N+](=O)[O-])c(=O)[nH]1	7.25

SMILES	hERG current change (%, negative = inhibition) at 1uM [%]
O=C(NCCc1ccncc1)Nc1ccccc1	-1.1
CCOc1cccc(C2CC(=O)Nc3cc(OC)c(OC)cc32)c1 (stereo not shown)	7.06
Cn1c(N)c(C(=O)COC(=O)c2ccc(Cl)nc2)c(=O)n(C)c1=O	19.6
COc1ccc(S(=O)(=O)N2CCC(Cc3ccccc3)CC2)cc1NC(C)=O	14.1
Cc1cc(-c2ccc(S(=O)(=O)N3CCN(c4cccc(C)c4C)CC3)s2)on1	3.15
CCc1nnc(NC(=O)Cc2ccc(OCc3c(C)noc3C)cc2)s1	11.3
CC(=O)NS(=O)(=O)c1ccc(NC(=S)NC(=O)C(C)(C)C)cc1	-7.65
CCc1ccccc1OCC(=O)Nc1ccc(C)c(S(=O)(=O)N2CCCCCC2)c1	2.53
Cc1ccc(CNC(=O)c2cncc(Br)c2)cc1	13.1
CC(=O)/C(C#N)=C1\NC(=O)C(Cc2ccccc2Cl)S1 (stereo not shown)	4.8
CCCC(=O)NC(=S)Nc1ccc(N2CCOCC2)c(Cl)c1	-12.1
Cn1cccc1C1C(C#N)=C(N)OC2=C1C(=O)CC(C)(C)C2 (stereo not shown)	7.78
O=C(Cc1ccc(Cl)c(Cl)c1)Nc1cccc2ncccc12	10.5
O=c1c2cnn(-c3ccccc3)c2nnn1Cc1ccccn1	-0.73
COC(=O)c1c(-c2c(Cl)cccc2Cl)noc1NC(=O)NN1CCOCC1	8.64
CCC(Sc1nnnn1-c1ccccc1)C(=O)NC(C)c1ccccc1 (stereo not shown)	9.25
CC1(c2nnc(-c3ccccc3)o2)CC(c2ccc([N+](=O)[O-])cc2)=NO1 (stereo not shown)	9.14
Clc1ccc(-n2nnnc2-c2ccccc2)cc1	9.83
CCN1CCN(C(=O)CN(c2cccc(Br)c2)S(=O)(=O)c2ccccc2)CC1	0.897
COc1ccc(-n2c(C)c(C)c3c(NCCN(C)C)ncnc32)cc1	1.86
COc1cc(CC(=O)OCC(=O)Nc2cc(S(=O)(=O)N3CCCC3)ccc2Cl)cc(OC)c1OC	2.72
CSc1nc2c(c(=O)[nH]1)C(c1ccc(Cl)cc1)CC(=O)N2 (stereo not shown)	20.4

SMILES	hERG current change (%, negative = inhibition) at 1uM [%]
COC(=O)c1cc(-c2ccc(C)cc2)n[nH]1	4.05
O=C(/C(=C/O)N=Nc1ccccc1)c1ccco1	17.8
CC(=O)Oc1ccc(C(=O)N2c3ccccc3NC(=O)C2C)cc1 (stereo not shown)	16.4
Cc1ccc2c(c1)C(c1ccccc1)=NCC(=O)N2C	8.53
O=C(CCNC(=O)c1ccc(Cl)cc1)Nc1c(F)c(F)cc(F)c1F	12.8
c1nc(Nc2ccc(N3CCOCC3)cc2)c2ccsc2n1	8.37
COc1ccc(N=N/C(=C\O)C(=O)c2ccco2)cc1	8.78
COCCCNC(=O)Cn1c(=O)n(CC(=O)N2CCCCC2)c(=O)c2sccc21	9.18
COCCNC(=O)C1CC(c2cccc([N+](=O)[O-])c2)=NO1 (stereo not shown)	17.3
COC(=O)c1ccc2c(=O)n(CCCN3CCOCC3)c(=S)[nH]c2c1	-5.6
COc1ccc2c(C)cc(SCC(=O)Nc3cccnc3Cl)nc2c1	13.7
O=C(NCc1ccccc1)C(c1cccnc1)N(C(=O)c1csnn1)c1ccc(F)cc1 (stereo not shown)	3.26
O=C(Nc1ccc(Cl)c(C(F)(F)F)c1)NC1CC2CCCC(C1)N2Cc1ccccc1 (stereo not shown)	-8.92
COc1ccc(NS(=O)(=O)c2cccc3nsnc23)cc1Cl	17.2
CN(C(=O)COC(=O)C1COc2ccccc2O1)c1c(N)n(Cc2ccccc2)c(=O)[nH]c1=O (stereo not shown)	6.48
O=c1c2ccccc2[nH]c2ccc(F)cc12	14.2
Clc1cccc(Nc2ncnc3ccc(Br)cc23)c1	3.03
COc1cc(C(=O)N2CCN(C)C(C)C2)ccc1OC1CCN(C(C)=O)CC1 (stereo not shown)	7.33
COc1ccccc1NC(=O)c1nnn(Cc2ccccc2)c1NC(C)=O	7.48
O=c1c2ccccc2oc2nc(C3CCCCC3)n(Cc3ccco3)c(=O)c12	-0.854
Cc1cc(C)c[n+](C[n+]2cc(C)cc(C)c2)c1.[Br-]	8.02
COc1ccc2nc(NC(=O)c3ccc(-c4cccc([N+](=O)[O-])c4)o3)sc2c1	17.7
